Experimental data as given in ChEMBL document CHEMBL4888484, “Replenishing the malaria drug discovery pipeline: Screening and hit evaluation of the MMV Hit Generation Library 1 (HGL1) against asexual blood stage Plasmodium falciparum ,using a nano luciferase reporter read-out” (2022).
Among all 150,000 compounds or so, about 540 (0.36%) showed an effect of 50% or more. The list shows a part of the results.

system: Plasmodium falciparum; assay: Primary screen in NF54 nanoGlo assay, in single point, at 2uM, 72h; a lower Z score goes with more inhibition; type: functional, Erythrocyte; details: timepoint 72 hour

SMILES | % Inhibition | Z score
CO[C@H]1COCC[C@@H]1NC(=O)c1ccccc1Cc1ccc(C)c(F)c1 | 5% | -0.66
CCCc1noc(CN(C)C(=O)c2cc[nH]c2C)n1 | -10% | 1.54
C=CCCn1ccc(-c2cccc(-c3ccncc3C)c2)n1 | -11% | 1.42
COC(=O)CN(C(=O)c1cc(C(C)C)on1)c1cccc(F)c1 | 8% | -1.01
COc1ccc(C(=O)n2nc(Nc3ccccc3Cl)cc2Nc2ccccc2Cl)cc1 | 36% | -0.85
Cc1c(CN2CCC(CNC(=O)c3ccnn3C)CC2)cnn1C | 4% | -0.85
CCOC[C@@]12CCN(C(C)=O)C[C@@H]1CN(C(=O)c1ccoc1)C2 | -17% | 1.95
Cc1nn(C)c2nc(N3CCC(OCc4cccnc4)CC3)sc12 | -13% | 1.29
C[C@@H](Cn1cccn1)NC(=O)C1CCCCC1 | -5% | 0.8
CCc1nc(CNc2nc(-c3ccco3)nc3c2CCN(C)CC3)no1 | -6% | 0.9
Cc1cn2nc(NC[C@@H](CO)Cc3ccc(F)cc3)sc2n1 | -10% | 1.38
COCCNc1nc(CC(=O)N[C@@H]2C[C@H]2C2CCCCC2)cs1 | 4% | -0.73
CCOc1ccc([C@@H](CNS(=O)(=O)N2CCCC2)c2c[nH]c3ccccc23)cc1OC | -5% | 0.38
CCOCc1nc2c(c(NCc3cccnc3OCC)n1)CCNCC2 | -11% | 2.17
Cc1cccc(C)c1OC[C@@H](O)CN1C(=O)NC2(CCCC2)C1=O | -6% | 0.85
Cc1ccc(C)c(NC(=O)[C@H]2CCn3ccnc3C2)c1 | -9% | 1.51
COCc1nc(C(=O)OCCN(C)c2ccccc2)cs1 | -14% | 1.82
CC1(c2cc(NC(=O)NC(CC3CCCO3)C(F)(F)F)no2)CCCC1 (stereo not given) | -6% | 1.21
CN(Cc1ccc(F)c(F)c1)c1nnc(C2CCN(c3ncccn3)CC2)n1C | -12% | 2.26
CCOC(=O)N1CCC(NC2CCCCC2C)CC1 (stereo not given) | -11% | 1.59
O=C(Cc1csc(-c2ccccc2)n1)N1C[C@H](O)CO1 | -17% | 2.91
CC(C)Oc1ccc(-c2nc(=O)c(CCC(=O)NCCN3CCCCC3)n[nH]2)cc1 | -1% | 0.21

SMILES | % Inhibition | Z score
CCc1ccc(S(=O)(=O)N(CCOC)c2ccncc2)s1 | -8% | 0.88
COC[C@H]1[C@H](NC(=O)Cc2nonc2C)[C@H]2CCO[C@H]21 | -11% | 1.15
CCC1CCN(C(=O)c2cn3c(n2)CC[C@H](C)C3)CC1 | -8% | 1.08
COc1cncc(C(NS(=O)(=O)c2cnn(C)c2)[C@H]2C[C@@H](O)C2)c1 (stereo not given in full) | -17% | 1.57
O=C(N[C@@H]1CCN(C(=O)CC2CCCCC2)C[C@@H]1CO)c1cccnc1 | 1% | -0.23
COc1ccc(C(=O)N2C[C@@H]3CN(C(C)=O)C[C@]3(C(=O)N3CCCC3)C2)c(C)c1 | -12% | 1.56
Cc1c(C(=O)N(C)C[C@H]2COc3ccccc3O2)cnn1C | -6% | 0.73
Cc1ccc(NC(=O)CC2CC3CCC2C3)c(Br)c1 (stereo not given) | 34% | -0.93
c1cncc(CNC[C@H]2CN(C3CC3)CCO2)c1 | -7% | 0.73
O=C(COc1ccc2c(c1)OCO2)Nc1nccs1 | -1% | 0.18
CC(C)C[C@H](NC(=O)c1cscn1)C(=O)Nc1cc[nH]n1 | -12% | 1.26
Cc1nc(C)c(F)c(NC2CCCC(CO)C2)n1 (stereo not given) | 4% | -0.58
COc1ccc(CNC(=O)CN2CCc3[nH]c4ccc(F)cc4c(=O)c3C2)cc1 | 6% | -0.72
CC(=O)Nc1ccnc(Cc2ccccc2)n1 | -8% | 1.29
CCOc1ccc(-c2nc(-c3ccc4c(c3)OCO4)cs2)cc1OC | -34% | 4.04
COc1cc(C)ccc1NC(=O)N1CCC[C@H](CN2CCOCC2)C1 | 0% | 0
CC[C@@]1(C)CCCN(C(=O)c2cn3nccc3nc2C)C1 | -12% | 1.52
COc1ccc(-c2cc(-c3ccc(C)cc3)nc3sc(C(=O)Nc4ccc5c(c4)OCO5)c(N)c23)cc1 | 33% | -3.72
O=C(CCCc1ccccc1)Nc1cc(C2CC2)nn1-c1nc(-c2ccccc2)cc(=O)[nH]1 | 54% | -8.76
C[C@H]1CCCCN1C(=O)CN1CCN(c2nccn3cnnc23)CC1 | 36% | -0.74
CC(C)C(=O)NCC(=O)N1CCC[C@H](c2[nH]ncc2-c2ccccc2)C1 | -11% | 2.1
O=S(=O)(c1ccco1)N1CCCCCO1 | -11% | 2.03

SMILES | % Inhibition | Z score
CC(=O)c1c(F)cccc1NCC1(C(N)=O)CCOCC1 | 20% | -2.24
Cn1nc2c(c1CNC(=O)N1CCOCC1)CCC2 | 13% | -1.63
Cc1ccc(C(=O)N2CCC(n3cnnc3)CC2)n1C(F)F | -17% | 2.61
CCN(C)S(=O)(=O)N[C@H](CO)Cc1ccccc1 | -16% | 1.81
Cc1nc(C)n(CC2CCCCN2CC(O)COc2ccccc2)n1 (stereo not given) | -9% | 1.64
Cn1ccnc1-c1nccn1-c1ccc2c(c1)CCC2 | 12% | -1.62
CCN(CC)CCNC(=O)c1cccc(-c2ccc3[nH]ccc3c2)c1 | -10% | 1.29
Cc1nc(CN2CC(n3cccn3)C2)oc1C | -5% | 0.57
Cc1[nH]c2c(F)cccc2c1CC(=O)N[C@@H](Cc1ccc(O)cc1)C(=O)O | -11% | 1.49
COc1ccc(-c2nn(-c3nc(-c4cnn(C)c4)cc(C(F)(F)F)n3)c(-c3ccc(OC)cc3)c2C)cc1 | 11% | -1.65
CCc1c[nH]c2ncnc(N3CCN([C@@H]4CCNC(=O)CC4)CC3)c12 | -1% | 0.24
C[C@@H](CNC(=O)c1ccc2nc(-c3ccc(F)cc3)c(-c3ccc(F)cc3)nc2c1)c1ccccc1 | -3% | 0.42
CN1CCC(NC(=O)c2cnc(-c3ccc4c(c3)OCO4)nc2Nc2ccc(F)cc2)CC1 | 45% | -3.53
CCC(CC)C(=O)Nc1c(C)cc(C)cc1C | 7% | -0.94
O=C1CN(Cc2nc(CCc3ccccc3)nn2-c2ccccn2)CCN1 | 0% | -0.02
CCC[C@H](C)N1Cc2cccc(NCc3c(C)noc3C)c2C1 | 3% | -0.51
CCNc1ccc(Cl)cc1C(=O)NCC(=O)N(C)CC | -10% | 1.62
Cc1cccc(NC(=O)NCCc2cn(C)c3ncccc23)c1C | -4% | 0.49
CC[C@H](C)C(=O)Nc1ccc(Oc2c(C)c(C(=O)O)nn2C)c(S(=O)(=O)NC(C)(C)C)c1 | -1% | 0.15
CCN1CC2(CCN(C(=O)c3oc(C)nc3C)CC2)CC1=O | -16% | 2.1
COc1cc(-c2nc(C(=O)NCCc3ccccn3)cs2)ccc1OCc1cccc(F)c1 | -14% | 1.83
CC1(O)CC(C(=O)NC2CCC(F)C2)C1 (stereo not given) | 2% | -0.28

SMILES | % Inhibition | Z score
CCCc1cncnc1N[C@H]1CCOC[C@@H]1Oc1ccccn1 | -10% | 1.38
CC(C)COCCNC(=O)N1CCCC2CN(C)CCC21 (stereo not given) | -4% | 0.48
COc1ccc(N2C(=O)N[C@@H]3C[C@]2(C)Oc2ccc(C)cc23)c(OC)c1 | -7% | 1.12
O=S1(=O)CCC(CNc2ncc(Br)cn2)CC1 | -12% | 1.66
Cc1ccc(-n2cnnc2)c(C(=O)N2CCN(C3CC3)C[C@H](C)C2)c1 | 5% | -0.79
Clc1ccc(Cl)c(OCCN2CCC[C@H](c3nncn3C3CC3)C2)c1 | -24% | 3.43
C[C@](O)(CCc1ccccc1)C(=O)NCCc1ncc[nH]1 | 32% | -4.62
CN(c1ccc(Br)cc1)c1ncnc2c1nc1n2CCCCC1 | -3% | 0.6
CCC(C)C(OC)C(=O)N1CC(=O)Nc2cnccc21 (stereo not given) | 6% | -1
COc1cccc([C@H](C)N2CCC(c3nc(-c4ccccn4)no3)CC2)c1 | -1% | 0.17
COc1ccccc1CC(=O)N1C[C@H]2CC[C@@H](C1)N(CC=C(C)C)C2=O | 3% | -0.49
CCC(C)(C)C1CCC2(CC1)C[C@@H]2c1nc(C2(OC)CCOCC2)no1 (stereo not given in full) | -3% | 0.55
C#CCN(C)CC[C@@H]1CC[C@H](O)[C@@H](C(=O)N(C)Cc2ccccc2)O1 | 1% | -0.1
CCCN1CCCN(C2CCN(c3ccc(-n4cccn4)cc3)CC2)CC1 | -8% | 1.04
CCOC1CC(NC(=O)c2nnc(C)s2)C12CCCO2 (stereo not given) | -16% | 2.06
O=C(O)c1csc(NC(=O)C2CCC=CCC2)c1 | 3% | -0.41
Cc1sc(C=Cc2cn(C)nc2C(F)F)nc1C(=O)O | -6% | 0.56
COC[C@@]1(C)CCN(Cc2csc(N(C)C3CC3)n2)C1 | 0% | -0.04
Cc1[nH]c(=O)c(C(=O)NCCCN(C)c2ccccc2)c(C)c1C | -4% | 0.74
